From PubChem BioAssay AID485344 (National Center for Advancing Translational Sciences (NCATS), 2010) come the findings set out here.

Hit rate of the full screen: of about 340,000 compounds, about 6,900 (2%) were called active. Cut-off read from the data, not from the text of the source: active = inhibition above about 30%; inactive = below that, where a call was filed. Only a part is listed here, and it is no random draw. Where no call is shown, the source filed none.

Chain of UniProt P14416 (P14416 whole entry, looked up): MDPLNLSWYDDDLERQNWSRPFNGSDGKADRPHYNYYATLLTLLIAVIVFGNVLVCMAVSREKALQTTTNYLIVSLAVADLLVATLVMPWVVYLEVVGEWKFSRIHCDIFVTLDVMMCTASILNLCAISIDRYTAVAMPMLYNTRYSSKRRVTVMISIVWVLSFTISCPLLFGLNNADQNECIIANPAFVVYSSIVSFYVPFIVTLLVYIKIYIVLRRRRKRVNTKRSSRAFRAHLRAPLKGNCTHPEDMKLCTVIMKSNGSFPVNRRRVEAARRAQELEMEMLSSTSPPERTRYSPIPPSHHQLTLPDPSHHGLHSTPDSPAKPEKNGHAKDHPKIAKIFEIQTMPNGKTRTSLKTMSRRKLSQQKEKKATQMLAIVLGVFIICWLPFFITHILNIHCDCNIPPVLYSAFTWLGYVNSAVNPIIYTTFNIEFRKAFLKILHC

For this test, the target named is D(2) dopamine receptor (Homo sapiens) (UniProt P14416). The test is described as follows: HTS Assay for Allosteric Antagonists of the Human D2 Dopamine Receptor: Primary Screen for Antagonists. Note: 0% is about no effect. Particulars: HEK293 TREx D2 cells, calcium flux, dopamine EC80; at 10 µM; stronger effect = higher value. In a few lines:
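Calcium mobilization kinetics were recorded at 1 s intervals in tetracycline-induced HEK293 T-REx D2 cells, first for 180 s after compound addition and then 180 s after EC80 dopamine.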
On to `Cc1ccc2c(CC(=O)N3CCN(c4cccc(Cl)c4)CC3)coc2c1C`, for which the inhibition amounted to 11.1%.
Consider `CC(=O)Nc1ccc(NC(=O)Cn2cc3c(n2)CCCCC3)cc1`, for which the inhibition is -5.33%.
Turning to `Cc1cccc(OCCSc2nc3ccc(NC(=O)COc4ccccc4C)cc3s2)c1`, the inhibition is -14.6%.
For `COC(=O)CN1C(=O)CSc2ccc(S(=O)(=O)Nc3ccccc3)cc21`, the inhibition is -17.7%.
Regarding `O=C(Cc1cccs1)Nc1ccc(NC(=O)c2ccco2)cc1`, the inhibition was active: 30.7%.
The result for `COc1ccc(/C=C/c2ccncc2)c2ccccc12` reads active: 44.6%; that for `CCOC(=O)c1c(NC(=O)CSc2cn(CCNC(=O)c3ccc(OC)c(OC)c3)c3ccccc23)sc2c1CCC2`, -0.426%.
As for `COC(=O)C1CCN(Cc2ccc(OCCCN3CCN(c4ccc([N+](=O)[O-])cc4)CC3)cc2)CC1`, the inhibition is active: 74.5%.
`C=CCc1ccc(OCC(O)CN2CCc3ccccc3C2)c(OC)c1` (stereo not drawn): the inhibition was active: 47%.
Turning to `Cc1cn2c(=O)cc(COC(=O)c3cccc(NC(=O)COc4ccccc4)c3)nc2s1`, the inhibition turned out to be 14.4%.
In the case of `Cc1cc(C)n2nc(-c3ccc(Cl)cc3)nc2n1`, the inhibition was 12.1%.
Regarding `Cc1cccc(N2CCN(c3nc4ccc(C(=O)c5ccccc5)cc4n4cnnc34)CC2C)c1` (stereo not drawn), the inhibition stood at 8.68%.
Turning to `CC(C)Oc1ccc(CNC(=O)c2ccc(CS(=O)Cc3ccccc3Cl)o2)cc1` (stereo not drawn), the inhibition was 3.82%.
With `CCc1cc2c(NC(Cc3c[nH]c4ccccc34)C(=O)O)nc(C)nc2s1` (stereo not drawn), the inhibition is active: 34.2%.
Take `COc1ccc(NC(=O)c2ccc3c(c2)N(Cc2cccc(Cl)c2)C(=O)c2ccccc2S3(=O)=O)cc1Cl`: the inhibition was -2.68%.
`CCN(CC)C(=O)Cn1ncc2c([nH]c3ccc(C)cc32)c1=O`: the inhibition amounted to 6.83%.
Turning to `O=C(NC1CCCCC1)C(c1ccncc1)N(C(=O)c1csnn1)c1ccc(F)cc1` (stereo not drawn), the inhibition was active: 37%.
The result for `Cc1ccc(-n2nc(C(=O)NCc3ccc(F)cc3Cl)c3c4ccccc4n(C)c3c2=O)cc1` reads 17.5%.
To `CCOc1ccc(OCC(O)CN2CCc3ccccc3C2)cc1` (stereo not drawn) belongs active: 50.1%.
`FC(F)(F)c1ccc2c(c1)ncc1c(-c3ccccc3)nn(-c3ccccc3)c12`: the inhibition stood at 15.1%.
With `COc1ccc(-c2cn3nc(N4CCC(C(=O)NCc5cccc(Cl)c5)CC4)sc3n2)cc1`, the inhibition came out at 8.76%.
The result for `COC(=O)c1ccc(Nc2nc(-c3ccc(C)cc3)nc3ccccc23)cc1` reads 9.02%; that for `CC(=O)N1CCc2c(sc3c2c(=O)n(Cc2ccccc2)c(=O)n3Cc2cccc(Cl)c2)C1`, -10.1%; that for `COc1cc(-c2noc(-c3ccc(N4CCCC4)c([N+](=O)[O-])c3)n2)cc(OC)c1OC`, -0.982%.
The result for `CCC(=O)N1CCc2cc(CNC(=O)Cc3ccc(OC)c(OC)c3)ccc21` reads 2.67%; that for `Cc1ccccc1Cn1cnc2c(oc3ccccc32)c1=O`, 0.472%; that for `CCC1=C(OC(=O)N(CC)CC)N2C(=O)OC(=NCCOC)[C@]2(Cc2ccccc2)[C@H]2C1=CC[C@H]1C(=O)NC(=O)[C@H]12`, active: 51.7%.
Regarding `COc1cc(C(=O)N2CCc3c([nH]c4ccccc34)C2c2ccc(F)cc2)cc(OC)c1OC` (stereo not drawn), the inhibition is -10.7%.
Consider `CC1=Nc2cc(C(=O)NC3CCC(C)CC3)ccc2Sc2c(C)ccc(C)c21` (stereo not drawn), for which the inhibition is -0.332%.
In the case of `CCOc1ccc(NC(=O)Nc2cccc(C)n2)cc1`, the inhibition was -21.4%.
For `Cc1ccc(-n2nc3c(N4CCC(C(=O)NCCc5ccccc5)CC4)nnc(C)c3c2C)cc1`, the inhibition came to 0.0643%.
For `COc1ccc(C)cc1NC(=O)CN(C)S(=O)(=O)c1ccc2c(c1)CCCN2C(C)=O`, the inhibition was -16.5%.
For the molecule `COCCCN1CN=C(NS(=O)(=O)c2ccc(NC(C)=O)cc2)NC1`, the inhibition is -5.26%.
`CCOC(=O)c1sc2ccccc2c1S(=O)(=O)N1CCN(c2ccccc2F)CC1`: the inhibition was -9.15%.
The result for `COc1ccc(N2Cc3cccc(C(=O)Nc4ccc(C)cc4)c3C2=O)cc1` reads 17.9%; that for `COc1cc(OC)c(NC(=O)Cn2nc(C)n3cccc3c2=O)cc1Cl`, 8.28%.
As to `CCC(=O)N1CCc2cc(S(=O)(=O)N3CCN(c4ccccc4F)CC3)ccc21`, the inhibition is 7.83%.
Take `CC1=C(c2cccc(Cl)c2)S(=O)(=O)NC1=NCc1ccccc1C`: the inhibition worked out at 3.22%.
As to `O=C(NCC(c1ccco1)N1CCN(c2ccccc2)CC1)c1ccco1` (stereo not drawn), the inhibition is active: 40.3%.
To `COc1ccc(C)cc1NC(=O)CN1C(=O)CSc2ccc(S(=O)(=O)N3CCCC3)cc21` belongs -14.8%; to `Cc1ccc(C)c(NC(=O)CCc2nc3cccnc3n2Cc2cccs2)c1`, -2.56%.
The result for `CCN(CC)C(=O)CSc1nc(-c2ccccc2)cc(-c2ccc(OC)cc2)c1C#N` reads 0.939%.
On to `COc1cccc(NC(=O)Cn2c(=O)n(-c3ccccc3)c(=O)c3c4c(sc32)CCCC4)c1`, for which the inhibition was -1.16%.
With `Cc1ccc(-c2cc(N)n(Cc3cccc(Cl)c3)n2)cc1`, the inhibition turned out to be 4.35%.
With `Cc1ccccc1-c1ccnc2c(-c3ccc(F)cc3)c(C)nn12`, the inhibition was 15%.
With `COc1ccc(C2Nc3ccccc3-n3c(-c4ccccc4)c4c(=O)n(C)c(=O)n(C)c4c32)cc1` (stereo not drawn), the inhibition was -4.21%.
Turning to `COc1ccccc1-c1noc(-c2ccc(NCc3ccccc3)c([N+](=O)[O-])c2)n1`, the inhibition was -8.12%.
The result for `Cc1cc2nc(NC(=O)c3ccc(S(=O)(=O)N4CCOCC4)cc3)sc2cc1C` reads 3.54%.
As to `COc1cccc(CN(C(=O)c2oc3ccc(Br)cc3c2C)C2CCS(=O)(=O)C2)c1` (stereo not drawn), the inhibition is 3.54%.
To `CCc1ccc(N(C(C)=O)C2C=CS(=O)(=O)C2)cc1` (stereo not drawn) belongs active: 37.2%; to `Cc1nc2ccn(Cc3ccccc3)c(=O)c2cc1C(=O)Nc1ccc(F)cc1Cl`, 1.87%.
In the case of `COC(=O)CNC(c1ccccc1)c1cc(Br)ccc1NC(=O)c1ccc(Cl)cc1` (stereo not drawn), the inhibition is 8.26%.
As for `Cc1coc2cc3oc(=O)c(CCC(=O)N4CCCCC4)c(C)c3cc12`, the inhibition was 8.36%.
Turning to `CCC(=O)N1CCc2cc(Br)cc(S(=O)(=O)NCc3cccc(OC)c3)c21`, the inhibition was -22.9%.
With `Cn1c2ccc(F)cc2c2nnc(SCCN3CCOCC3)nc21`, the inhibition was active: 35.3%.
To `CCOC(=O)c1ccccc1NC(=O)c1c(-c2ccccc2)noc1C` belongs -26.8%.
Take `CCN(CC)S(=O)(=O)c1ccc2c(c1)c(=O)c(C(=O)NCCc1ccc(OC)c(OC)c1)cn2C`: the inhibition is -9.36%.
The result for `O=C(Cn1cc(SCc2ccccc2)c2ccccc21)N1CCCCC1` reads 5.6%.
Consider `COc1ccc(-c2nc(C)c(CCNC(=O)C(=O)Nc3c(C)cccc3C)s2)cc1OC`, for which the inhibition was -1.16%.
`CCc1ccc(CNC(=O)CN(c2ccc(C)cc2)S(=O)(=O)N(C)C)cc1`: the inhibition came to 8.59%.
To `COc1ccc(OC)c(CCNC(=O)C2CCN(c3ncnc4c3nc3n4CCCCC3)CC2)c1` belongs 1.82%; to `N#Cc1c(-n2ncnc2-c2ccc(Br)cc2)sc2c1CCCCC2`, -1.3%.
`CSc1ccc(CNC(=O)C2CCN(c3nnc(-n4cccc4CNc4ccc(C)cc4)s3)CC2)cc1`: the inhibition stood at 13%.
Take `COc1ccc(OC)c(NC(=O)CCc2c(C)nn(-c3ccc(N4CCCC4)nn3)c2C)c1`: the inhibition was -18.6%.
Take `Cc1ccc(N2CC(NC(=O)c3ccc(S(=O)(=O)N4CCCC4)cc3)CC2=O)cc1` (stereo not drawn): the inhibition was -12.1%.
The result for `CC(C)(C)OC(=O)N1CCC(c2c(C(=O)NCCCN3CCc4ccccc4C3)cnn2-c2ccccc2)CC1` reads 23.7%.
To `O=C(Nc1ccc2c(c1)CCCN2C(=O)c1cccs1)c1c(F)cccc1F` belongs 12.4%; to `O=C1CC(=O)Nc2cc(S(=O)(=O)Nc3cccc(C(F)(F)F)c3)ccc2N1`, active: 30.5%; to `Cc1ccc(NC(=O)c2cn3c4c(ccc(Cl)c4c2=O)OC(C)C3)c(C)c1` (stereo not drawn), 15.2%.
To `O=C(CCc1cn(Cc2ccccc2Cl)c2ccccc12)NC1CCCCC1` belongs 12.7%; to `C/C(N)=C(/C#N)C(=O)COC(=O)c1cc(-c2ccc(Br)cc2)nc2ccccc12`, active: 46.8%.
Consider `Cc1c(C(=O)N2CCC(C)CC2)c(S(=O)(=O)NCc2ccc(Br)cc2)c(C)n1C`, for which the inhibition was -12%.
`CC(C)c1ccc(NC(=O)C2CCN(c3nc(-c4ccc(C(C)C)cc4)no3)CC2)cc1`: the inhibition is 3.47%.
For `CCCCc1nc2ccccc2n2c(-c3ccc(OC)cc3)c3c(=O)n(C)c(=O)n(C)c3c12`, the inhibition was 2.84%.
As to `COc1ccc(CNC(=O)c2cc(-c3cccc(Cl)c3)on2)cc1`, the inhibition came to 4.62%.
`Cc1ccccc1Nc1c(-c2ccc(Cl)s2)nc2c(C)cccn12`: the inhibition is 9.03%.
Regarding `Cc1nc2sccn2c(=O)c1CCN1CCC(=C(c2ccc(F)cc2)c2ccc(F)cc2)CC1`, the inhibition is active: 78.3%.
With `COc1ccc(-n2ncc(C(=O)N3CCN(c4ncccn4)CC3)c2C2CCN(C(=O)OC(C)(C)C)CC2)cc1`, the inhibition stood at 9.88%.
Consider `Cc1cc(C)cc(NC(=O)CCCN2C(=O)COc3ccc(C)cc32)c1`, for which the inhibition amounted to 19.7%.
The result for `O=C(COc1ccc([N+](=O)[O-])cc1)NCC1(N2CCOCC2)CCCCC1` reads -12.6%; that for `Nc1cc(=O)nc(SCC(=O)Nc2ccc(F)cc2)n1-c1ccccc1Cl`, -1.54%; that for `COc1ccc(C)cc1NC(=O)C1CCN(S(=O)(=O)c2ccc3[nH]c4c(c3c2)CCCCC4)CC1`, 0.899%.
Take `Cc1c(C)c2c(OCC(=O)N[C@@H](C(=O)O)c3ccccc3)cc3c(c2oc1=O)CCC(C)(C)O3`: the inhibition is active: 30.5%.
For the molecule `CC(=O)c1cccc(NC(=O)CSc2nc(=O)n(Cc3cccnc3)c3c2CCC3)c1`, the inhibition was 20.1%.
The result for `Oc1c(C(c2ccccc2F)N2CCCCC2)sc2nc(-c3ccco3)nn12` (stereo not drawn) reads 3.43%; that for `O=C(CCCn1c(=O)c2ccccc2n(Cc2ccc(F)cc2Cl)c1=O)NCCc1ccc(Cl)cc1`, 22.7%; that for `COC(=O)c1ccccc1NC(=O)c1nc(S(=O)(=O)Cc2cccc(C)c2)ncc1Cl`, 13.2%.
Turning to `CCOc1ccc(-c2cc(-c3nc(-c4cc(OC)c(OC)c(OC)c4)no3)[nH]n2)cc1Cl`, the inhibition worked out at 6.17%.
For the molecule `Cc1cccc(NC(=O)c2c(C)cc(C)nc2SCC(=O)Nc2c(C)cc(C)cc2C)c1`, the inhibition was -21.9%.
To `CC(=O)Nc1ccc(NC(=O)c2ccc(COc3ccc(Cl)cc3Cl)o2)cc1` belongs 5.69%; to `Cc1ccc(-n2nc(CO)c(C(=O)NCc3cccs3)n2)cc1C`, -5.68%; to `COC(=O)c1cc(NC(=O)[C@H](CCS(C)(=O)=O)N2Cc3ccccc3C2=O)cc(C(=O)OC)c1`, -8.51%.
On to `CCc1ccc(-c2nc3cc(NC(=O)c4cc5ccccc5cc4OC)ccc3o2)cc1`, for which the inhibition was -13.2%.
